The source of these data is PMC6919601, “Identification of Plasmodium dipeptidyl aminopeptidase allosteric inhibitors by high throughput screening” (PLoS ONE, 2019).

Molecules are shown by their SMILES. Among all 110,000 compounds or so, about 230 (0.21%) showed an effect of 50% or more. The list shows a part of the results.
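Also: 30 min substrate incubation versus DMSO and 10 µM JCP410 controls.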

The target in this test is DPAP1 (Plasmodium falciparum, UniProt Q8IIJ9). Nature of the test: primary screen, percent inhibition; read by cleavage of a fluorogenic dipeptide substrate; higher = more effect of the substance. Also on record: species or system P. falciparum D10 trophozoite lysates; single well.
Sequence of DPAP1 (Q8IIJ9 whole entry, looked up): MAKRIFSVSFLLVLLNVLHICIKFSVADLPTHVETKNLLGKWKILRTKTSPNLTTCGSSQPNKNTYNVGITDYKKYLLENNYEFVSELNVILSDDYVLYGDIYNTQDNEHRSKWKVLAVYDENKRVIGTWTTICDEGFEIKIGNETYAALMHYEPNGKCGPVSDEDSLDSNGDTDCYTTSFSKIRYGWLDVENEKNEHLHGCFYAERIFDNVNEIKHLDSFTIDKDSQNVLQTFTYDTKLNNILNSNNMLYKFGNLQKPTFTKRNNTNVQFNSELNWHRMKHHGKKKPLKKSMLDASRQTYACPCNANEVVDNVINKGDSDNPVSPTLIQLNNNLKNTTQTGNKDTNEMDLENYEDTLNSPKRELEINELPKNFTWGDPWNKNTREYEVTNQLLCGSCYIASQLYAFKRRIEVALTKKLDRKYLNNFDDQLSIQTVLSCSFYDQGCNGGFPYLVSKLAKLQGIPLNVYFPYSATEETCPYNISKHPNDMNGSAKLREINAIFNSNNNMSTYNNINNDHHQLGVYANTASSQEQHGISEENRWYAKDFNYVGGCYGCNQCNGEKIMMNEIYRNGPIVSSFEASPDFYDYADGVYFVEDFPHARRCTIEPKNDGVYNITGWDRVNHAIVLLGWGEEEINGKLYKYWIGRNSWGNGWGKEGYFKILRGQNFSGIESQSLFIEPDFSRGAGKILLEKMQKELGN
With `Cc1ccc(-c2nn(CC(=O)NCCc3ccccc3)c(=O)c3ccccc23)cc1`, the “% Inhibition @ 10 uM” value is listed as -3.21%.
In the case of `Cn1nc(C(F)(F)F)cc1C(=O)N1CCc2ccccc21` it was 29.1%.
In the case of `O=S(=O)(NCc1ccccn1)c1ccc(Oc2ccccc2Cl)cc1` it was 5.31%.
In the case of `Cc1ccc(OCCCCn2ccnc2)cc1C` it was -3.42%; in that of `O=C(CN1Cc2ccccc2C1=O)Nc1cccnc1`, 3.37%; in that of `O=C(COc1ccccc1)Nc1cccc(NC(=O)Cc2ccccc2)c1`, -4.84%.
For the compound `COc1ccc(CNc2ccccc2)c2ccccc12`, the “% Inhibition @ 10 uM” value was found to be 6.52%.
The same measure for `COc1ccc(CCNc2oc(/C=C/c3cccs3)nc2C#N)cc1OC`: -3.49%; for `CC(C)(C)c1ccc(OCC(=O)O)c(C(C)(C)C)c1`: -2.28%; for `Cc1ccc(C2C(C#N)=C(N)Oc3c2ccc2cccnc32)cc1` (stereo not shown): -0.693%.
The same measure for `COC(=O)c1cc2c(=O)n3ccccc3nc2n(Cc2ccco2)c1=N`: 3.6%.
For the compound `CCOC(=O)N1CCN(Cc2ccccc2F)CC1`, the “% Inhibition @ 10 uM” value is listed as -2.34%.
On to `COc1cccc(CNCc2cccnc2)c1OCc1ccccc1F`, for which the “% Inhibition @ 10 uM” value was determined as 0.755%.
The same measure for `CCOC(=O)N1CCN(C(=O)CSCc2nc(-c3ccccc3F)oc2C)CC1`: 2.16%.
As for `CC(C)(C)C1CCc2c(sc(NC(=O)CCC(=O)O)c2C#N)C1` (stereo not shown), the “% Inhibition @ 10 uM” value is given as 1.01%.
The same measure for `COc1ccc(CN2CCN(c3cccc(C)c3C)CC2)cc1Br`: -5.68%; for `C=CCN(CC=C)S(=O)(=O)c1ccc(F)cc1`: -1.05%.
Turning to `CCN(C(=O)c1ccc(Br)o1)c1ccccc1`, the “% Inhibition @ 10 uM” value is given as 3.53%.
The same measure for `CC(C)=C1C2CCC1C1C(=O)N(c3nc(-c4ccc(Cl)cc4)c(C)s3)C(=O)C21` (stereo not shown): 7.04%.
In the case of `c1ccc(C2CCC(Nc3ccc4c[nH]nc4c3)CC2)cc1` (stereo not shown) it was -2.34%; in that of `CC1CCCCN1S(=O)(=O)c1ccc(NC(=O)COc2ccc(F)cc2)cc1` (stereo not shown), 10.9%.
The same measure for `Cc1nc2cc(-c3ccccc3)nn2c(C)c1CC(=O)NC(C)c1cccs1` (stereo not shown): -4.24%; for `Cc1ccc(S(=O)(=O)Nc2nc3ccccc3nc2Nc2ccc(O)cc2)cc1`: 1.42%; for `COC(=O)C1=CN(Cc2ccc(Cl)cc2)C=C(C(=O)OC)C1c1ccccc1Cl`: 4.99%.
On to `COC(=O)Nc1ccc2c(c1)N(C(=O)CCN1CCOCC1)c1ccccc1C=C2`, for which the “% Inhibition @ 10 uM” value came to 2.55%.
In the case of `COc1cccc(C2C(C#N)=C(N)Oc3c2c(=O)oc2ccccc32)c1OC` (stereo not shown) it was 0.0345%.
On to `O=C(NCc1ccc(Cl)cc1)C(=O)NC1CCCC1`, for which the “% Inhibition @ 10 uM” value was found to be 1.29%.
With `COc1ccc(-n2nnc(-c3nc(-c4ccccn4)no3)c2N)cc1`, the “% Inhibition @ 10 uM” value is on record as 2.19%.
The same measure for `Cn1c(-c2cccs2)nc2cnccc21`: 0.962%; for `CCOC(=O)c1sc2nc(C)ccc2c1N`: 2.7%; for `Nc1c(C(=O)Nc2ccccc2C(=O)O)sc2nc3c(cc12)CCC3`: -0.992%.
For the compound `Oc1ccccc1-c1nc(N2CCN(c3ccccc3)CC2)c2ccccc2n1`, the “% Inhibition @ 10 uM” value was 8.06%.
Take `CCc1ccc(/C=C(/C#N)c2nc(-c3ccc(C)cc3)cs2)cc1`: the “% Inhibition @ 10 uM” value is -4.52%.
In the case of `COCCNC(=O)Nc1ccc2c(c1)nc(C)n2C` it was -2.74%; in that of `Oc1ccc(-c2nc3ccccc3[nH]2)nn1`, 4.63%; in that of `CCCCC(=O)Nc1c(-c2ccccc2)nc2ccccn12`, -3.19%.
In the case of `O=S(=O)(O)c1ccc2[nH]c(-c3ccccc3)nc2c1` it was -2.35%; in that of `Cc1ccc(-c2noc(-c3ccccn3)n2)cc1`, -7.17%; in that of `O=C(NCCc1c[nH]c2ccccc12)c1nc(-c2ccc(-n3cccc3)cc2)no1`, 17.2%.
As to `CN(C(=O)c1ccccc1Cl)c1ccccc1`, the “% Inhibition @ 10 uM” value was determined as 0.135%.
In the case of `Cn1cc(S(=O)(=O)N2CCOCC2)cc1C(=O)N1CCOCC1` it was -5.01%.
The same measure for `CC(C)C[C@H](NC(=O)c1ccc2c(c1)CCCC2C)C(=O)NCC#N` (stereo partly shown): -1.82%; for `CC[C@H](NC(=O)[C@H](C)NC(=O)c1ccc(-c2cc(C(=O)O)ccc2Cl)cc1)C(=O)c1nc2ccccc2o1`: -6.56%.
In the case of `Cc1ccc(C2=NN(CCC(=O)NCCN(C)Cc3ccccc3)C(=O)CC2)cc1` it was -0.0542%; in that of `CCc1nnc2c(NCc3ccc(C)cc3)nc3ccccc3n12`, 3.5%.
Consider `COc1ccc(OC)c(S(=O)(=O)N2CCN(C(c3ccccc3)c3ccccc3)CC2)c1`, for which the “% Inhibition @ 10 uM” value worked out at 1.62%.
In the case of `O=C(OCCCN1CCOCC1)c1ccc(O)cc1O` it was 0.774%; in that of `CCOc1cc(/C=C2\SC(=O)N(CC(=O)Nc3ccc(C)cc3)C2=O)ccc1O`, -10.2%; in that of `COc1ccc(/C=C/C=C2\NC(=S)NC2=O)cc1`, -4.8%.
On to `COc1ccc(-n2nc3c(c2NC(=O)c2ccco2)CS(=O)(=O)C3)cc1`, for which the “% Inhibition @ 10 uM” value is listed as 8.06%.
In the case of `CCCOc1ccc(CNC(=O)C(C)n2ncn3cccc3c2=O)cc1` (stereo not shown) it was -2.45%; in that of `O=C(CSc1ncc(-c2ccccc2)n1-c1ccccc1)NCc1ccco1`, -2.77%.
The same measure for `CCCN(CCO)Cc1cccc(Br)c1`: -9.93%; for `COc1ccccc1N(CC(=O)N1CCCC1)S(=O)(=O)c1ccc(C)cc1`: 2.44%.
For `C=CCN1C(=O)N/C(=C/c2cc(C)n(-c3ccc(C#N)cc3)c2C)C1=O`, the “% Inhibition @ 10 uM” value came out at 7.67%.
The same measure for `CN1CSC2=C(C#N)C(c3ccc(Br)cc3)CC(=O)N2C1` (stereo not shown): 43.4%; for `CCc1nn(CC(=O)N2CCN(CC)CC2)c(=O)c2cccn12`: 0.544%; for `COc1ccc(C/N=c2/c(-c3ccc(C)cc3)c(O)c2=O)cc1`: -4.68%.
Turning to `CN(C)CCCN1C(=O)C(O)=C(C(=O)c2ccc(S(=O)(=O)N(C)C)cc2)C1c1cccnc1` (stereo not shown), the “% Inhibition @ 10 uM” value is recorded as -3.06%.
In the case of `Cc1nc2c3ccccc3n3c(CCCC(=O)NCc4ccc(Cl)cc4)nnc3n2n1` it was 0.44%.
In the case of `CC(=O)Nc1ccc(NC(=O)C(C)c2cccc(C(=O)c3ccccc3)c2)cc1` (stereo not shown), the “% Inhibition @ 10 uM” value is recorded as 9.01%.
The same measure for `CCOc1ccc(CNCc2c(C(=O)O)c(C)n(Cc3ccc(F)cc3)c2C)cc1`: -0.23%; for `COc1ccccc1S(=O)(=O)Cc1ccc(C(=O)NC2CCCCCC2)o1`: 0.458%; for `O=C(Nc1nccs1)C1CCN(c2ncnc3c2nc2n3CCCCC2)CC1`: 3.05%.
In the case of `CN1CCN(c2ccc(NC(=O)c3cccs3)cc2)CC1` it was -3.57%; in that of `CCOC(=O)c1sc(NC(=O)CSc2nnnn2-c2ccccc2)nc1C`, -1.33%; in that of `Cc1cc(O)n2nc(N3C(=O)c4ccccc4C3=O)nc2n1`, 0.401%.
On to `Cc1ccc(-c2c(N3CC(C)CC(C)C3)c(=O)c2=O)cc1C` (stereo not shown), for which the “% Inhibition @ 10 uM” value is 1.14%.
In the case of `CCOC(=O)C1CCN(Cc2cccs2)CC1`, the “% Inhibition @ 10 uM” value is reported as -1.77%.
As for `CC(NC(=O)N(Cc1ccccc1)Cc1ccc2c(c1)OCO2)(C(F)(F)F)C(F)(F)F`, the “% Inhibition @ 10 uM” value is 2.09%.
With `COc1cccc(/C=C2/NC(=O)N(Cc3ccc(F)cc3)C2=O)c1`, the “% Inhibition @ 10 uM” value was -0.95%.
For `O=C(O)/C=C\C(=O)N(c1ccccc1)c1ccc2ccccc2c1`, the “% Inhibition @ 10 uM” value is 0.00773%.
Turning to `CCC(=O)NC(c1ccco1)c1c(O)ccc2ccccc12` (stereo not shown), the “% Inhibition @ 10 uM” value was 4.99%.
On to `CC1CCCN(C2CCN(C(=O)c3cccc(Cl)c3)CC2)C1` (stereo not shown), for which the “% Inhibition @ 10 uM” value is recorded as 3.54%.
On to `O=C(c1cc(-c2ccccc2)c(N2CCCCC2)s1)N1CCN(c2ccccn2)CC1`, for which the “% Inhibition @ 10 uM” value was -1.04%.
Consider `COc1cc(C(=O)N2CCN(Cc3ccc(C(F)(F)F)cc3)CC2)cc(OC)c1OC`, for which the “% Inhibition @ 10 uM” value was 3.86%.
In the case of `Cc1nc(C)c(NC(=O)N2CCOCC2)cc1NC(=O)N1CCOCC1` it was 1%; in that of `O=C(NCc1ccccc1C(F)(F)F)c1ccccn1`, -6.91%.
`CC1CCCC(NS(=O)(=O)c2ccc3[nH]c4c(c3c2)CCCC4)C1C` (stereo not shown): the “% Inhibition @ 10 uM” value is on record as -5.3%.
In the case of `CC(C)(C)c1ccc(S(=O)(=O)NCc2ccc(C(=O)NCC3CCCO3)cc2)cc1` (stereo not shown) it was 0.389%; in that of `COc1ccccc1CNC(=O)C(NS(=O)(=O)c1cccc2nsnc12)C(C)C` (stereo not shown), 4.54%.
In the case of `O=S1(=O)N(Cc2ccc(Cl)cc2)CCCN1Cc1cccc(C(F)(F)F)c1` it was -5.32%; in that of `COc1ccc(C2C(C(=O)c3ccc(C)cc3)=C(O)C(=O)N2c2cccc(C(=O)O)c2)cc1OC` (stereo not shown), -8.78%.
The same measure for `COc1ccc(COC(=O)C2=C(C)NC(=O)NC2c2ccc(O)cc2)cc1` (stereo not shown): 16.9%; for `N#Cc1c(-c2ccccc2)cc(-c2ccccc2)c(C#N)c1N`: 0.716%.
Regarding `COc1cccc(N2C(=O)CC(N3CCN(c4ccccc4Cl)CC3)C2=O)c1` (stereo not shown), the “% Inhibition @ 10 uM” value is -1.79%.
Take `COc1ccccc1CNC(=O)COc1ccc2c(c1)C(=O)CC1(CCN(C(C)=O)CC1)O2`: the “% Inhibition @ 10 uM” value was -1.28%.
Turning to `COc1ccccc1CNC(=O)c1oc2ccc3c(c2c1C)C(=O)CC1(CCCC1)O3`, the “% Inhibition @ 10 uM” value is 5.42%.
In the case of `CCCNC(=O)c1oc2ccc3c(c2c1C)C(=O)CC(C)(CC)O3` (stereo not shown) it was -2.17%; in that of `COc1ccc(C)cc1NC(=O)CN(c1ccc(Cl)c(Cl)c1)S(C)(=O)=O`, 6.15%; in that of `COc1cccc(/C=C2\N=C(c3ccc(OC)cc3Cl)OC2=O)c1`, -3.08%.
The same measure for `Cc1nc(O)nc(O)c1S(=O)(=O)N1CCC(C(=O)NC(C)CCc2ccccc2)CC1` (stereo not shown): -5.88%; for `CCN1OCN(c2nc(N(C)C)nc(N(C)C)n2)C1=N`: -2.49%.
In the case of `Cc1ccc2c(c1)c1c(n2C)C(NC(N)=O)CCC1` (stereo not shown) it was -2.99%.
As for `COCCCNc1nc2c(c(=O)[nH]c(=O)n2C)n1CC(O)COc1ccc(OC)cc1` (stereo not shown), the “% Inhibition @ 10 uM” value stood at 0.275%.
Turning to `CCSc1nc2c(c(=O)n(Cc3ccccc3Cl)c(=O)n2C)n1C`, the “% Inhibition @ 10 uM” value is -3.28%.
The same measure for `CCOc1ccc(NC(=O)c2nn(C)cc2Br)cc1`: -3.45%; for `CN1CCCN(Cc2ccc(Cl)c(Cl)c2)CC1`: -3.95%; for `COc1ccc(-c2nc(Cn3c(=O)cc(-c4ccccc4)c4c(C)nn(C)c43)c(C)o2)cc1`: 7.28%.
In the case of `Cc1c(Cc2ccccc2)sc(NC(=O)Nc2ccccc2)c1C(N)=O`, the “% Inhibition @ 10 uM” value was -0.055%.
